Test results reported in PubChem BioAssay AID588463 (National Center for Advancing Translational Sciences (NCATS), 2011).
Screen size: about 1,200 compounds; about 15 (1%) were called active. Inconclusive means that the source gave no clear call. Such entries were picked first, then a sample of the others. Calls come from the whole dose curve; as a rule, active = well fitted activation curve with a large enough effect; inconclusive = small, poorly fitted or top-dose-only effect; inactive = flat fitted curve, though single readings scatter. Where the call is inconclusive, the potency comes from a doubtful curve fit.

Molecular target: Beta-2 adrenergic receptor (Homo sapiens) (UniProt P07550)
UniProt P07550, sequence (P07550 whole entry, looked up): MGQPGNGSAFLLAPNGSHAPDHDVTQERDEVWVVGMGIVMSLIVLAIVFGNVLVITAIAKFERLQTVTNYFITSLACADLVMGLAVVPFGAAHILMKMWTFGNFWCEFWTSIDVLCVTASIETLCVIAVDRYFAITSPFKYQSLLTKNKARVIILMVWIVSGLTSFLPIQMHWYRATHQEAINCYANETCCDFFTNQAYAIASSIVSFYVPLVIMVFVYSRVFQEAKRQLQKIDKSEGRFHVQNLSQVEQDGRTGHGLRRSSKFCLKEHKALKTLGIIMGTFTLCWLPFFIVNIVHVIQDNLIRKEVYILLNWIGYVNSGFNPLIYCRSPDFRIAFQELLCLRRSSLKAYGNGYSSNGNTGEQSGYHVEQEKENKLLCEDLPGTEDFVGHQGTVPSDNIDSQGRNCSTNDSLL
Assay: qHTS assay of beta-arrestin-biased ligands of beta2-adrenergic receptor: Hit Validation
Conditions: cell-based beta-arrestin recruitment to beta2AR; Potency: activation; series mostly up to 46.1 µM
Excerpt: The concept of biased agonism is an emerging concept of molecular pharmacology which proposes that seven transmembrane receptors (7TMRs) or G protein-coupled receptors (GPCRs), exist in multiple signaling conformations and complexes and that ligands (either agonists or antagonists) can induce signaling biased responses for distinct signal transduction cascades.
Furthermore, accumulating evidence over the last decade has drawn attention to a novel function of beta-arrestins as signal transducers that scaffold various signaling molecules upon activation of 7TMRs. […] This beta-arrestin-biased signaling presumably leads to distinct physiological outcomes from those by G protein activation.
Additionally, the active receptor conformations which […] on this beta-arrestin signaling are likely different from those activating G protein signaling
The goal of this screening project will be to discover and optimize novel beta-arrestin-biased ligands for beta2-AR signaling. A luminescent cell-based assay for beta2-AR-mediated agonism, known as the Tango assay, has been validated in which ligand binding of a recombinant beta2-AR and subsequent recruitment of a recombinant beta-arrestin lead to the release of the transcriptional activator tTA, which upregulates transcription of a tTA-responsive luciferase gene.
NIH Molecular Libraries Probe Production Network [MLPCN]
NIH Chemical Genomics Center [NCGC]
PI: Bryan Roth (UNC) and Bob Lefkowitz (Duke)
NCGC Assay Protocol Summary:
Tango cells were dispensed into white, solid, tissue-culture-treated 1536-well plates at 1500 cells/well in DMEM, containing 1% fetal bovine serum (FBS). Then, 23 nL of compounds or DMSO were delivered to each well using a pin tool. Plates were incubated at 37 degrees C, 5% CO2 for 18 hr. Then 2.5 uL luminescent substrate mix (in-house prepared: 150 mM Tris-Cl, pH 7.6, 3 mM MgCl2, 1% Triton X-100, 5 mM DTT, 0.5 mM CoA, 0.15 mM ATP, 0.44 mM D-luciferin, final concentrations) was added to each well. Plates were then incubated for 15 minutes at room temperature, and subsequently measured on a ViewLux plate reader for luminescent signal using a clear filter with a 10 second exposure and 2x binning. The %Activity was determined from the corrected luminescence values.
Concentration-response curves were fitted to the signals arising from the resulting luminescence. The concentration-effect curves were then classified based on curve quality (r2), response magnitude and degree of measured activity, and compounds were subsequently categorized based on their curve class.
Keywords: biased agonism, beta2-AR, beta-arrestin, GPCR, 7TMR, Tango, luminescence, MLSMR, MLPCN, NIH Roadmap, qHTS, NCGC
Potency is the fitted concentration of half-maximal effect; tags give direction and shape of the fitted curve.

Row | Compound | Potency
1 | CCCCC(=O)NC(c1cccc([N+](=O)[O-])c1)c1c(OC(C)=O)ccc2ccccc12 (centres undefined) | inactive
2 | CCCNC(=O)c1ccc(N2CCC3(CC2)CC(c2cccc(Br)c2)=NO3)c(NC(=O)c2ccc(Br)cc2)c1 | inactive
3 | COc1ccc(C(NC(C)=O)c2cc(Cl)c3cccnc3c2O)cc1 (centres undefined) | inconclusive: 29.1 µM [activator, partial curve, poor fit]
4 | O=c1ccc(S(=O)(=O)N2CCCC2)c[nH]1 | inactive
5 | CC1CCC(NC(=O)c2ccc(S(C)(=O)=O)cc2)CC1 (centres undefined) | inconclusive: 20.6 µM [activator, single point]
6 | COc1cccc(C(NC(C)=O)c2ccc3cccnc3c2O)c1 (centres undefined) | inconclusive: 14.6 µM [activator, partial curve]
7 | COc1ccc(-c2c(-c3ccccc3)c(C(=O)C(=O)NCCCN(C)C)n3ccc4cc(OC)c(OC)cc4c23)cc1OC | inactive
8 | CCC1(C)Nc2ccccc2C(=O)N1O (centres undefined) | inconclusive: 29.1 µM [activator, single point]
9 | Cc1cccc(-n2ncc3c(Nc4c(C)n(C)n(-c5ccccc5)c4=O)ncnc32)c1 | inactive
10 | Cc1cc(C)n(-c2nc(NC(C)(C)C)nc(NC(C)(C)C)n2)n1 | inconclusive: 6.51 µM [activator, partial curve, poor fit]
11 | Oc1ccccc1C(Nc1nccs1)c1ccc2cccnc2c1O (centres undefined) | inconclusive: 20.6 µM [activator, single point]
12 | CC(C)C(=O)N1CCC2(CC1)Oc1ccc(Cl)cc1C(=O)C21CC(c2ccccc2)=NO1 (centres undefined) | inconclusive: 16.4 µM [activator, partial curve, poor fit]
13 | CCOc1cccc(C(c2c(C)n(C)n(-c3ccccc3)c2=O)c2c(C)n(C)n(-c3ccccc3)c2=O)c1OC | inconclusive: 18.4 µM [activator, partial curve, poor fit]
14 | CC(C)C(=O)COc1c2occc2cc2ccc(=O)oc12 | inactive
15 | CCOC(=O)C1CCN(Cc2cnc(Oc3ccc(N)cc3)s2)CC1 | inactive
16 | CN(C)CCCn1c(SCC(=O)Nc2nccs2)nnc1-c1ccncc1 | inconclusive: 20.6 µM [activator, partial curve, poor fit]
17 | COc1ccc(N(CC(=O)N2CCCC2)S(C)(=O)=O)cc1 | inactive
18 | COc1ccc(OC)c(CNC(=O)CCCc2cn(C)c3ccccc23)c1 | inactive
19 | Cc1ccc(S(=O)(=O)Nc2cccnc2)cc1 | inactive
20 | CCC(NC(C)C)C(O)c1ccc(O)c(O)c1 (centres undefined) | active: 2.06 µM
21 | COc1ccccc1N1CCN(Cc2ccc(O)c3ncccc23)CC1 | inconclusive: 29.1 µM [activator, single point]
22 | O=C(N/N=C/c1ccccc1OC(=O)c1ccc2c(c1)OCO2)c1ccccc1 | inconclusive: 20.6 µM [activator, single point]
23 | COc1ccc(N/C=C/C(=O)C(F)(F)F)cc1 | inactive

Row | Compound | Potency
24 | Cn1c(=O)c(C(=O)NNC(=O)c2ccccc2Cl)c(O)c2ccccc21 | inconclusive: 32.6 µM [activator, partial curve, poor fit]
25 | COc1ccc(C2=NN(C(=O)c3ccc(Cl)c([N+](=O)[O-])c3)C(c3ccccc3)C2)cc1 (centres undefined) | inconclusive: 16.4 µM [activator, single point]
26 | C=CCNC(=S)N/N=C(\C)c1cccc(NC(C)=O)c1 | inconclusive: 13 µM [activator, partial curve]
27 | CN(c1ccccc1)c1ccc(/C=N/NC(=O)CC#N)cc1 | inconclusive: 9.2 µM [activator, partial curve]
28 | COCCCN1C(=O)c2[nH]nc(-c3ccccc3O)c2C1c1ccc(Cl)cc1 (centres undefined) | inconclusive: 18.4 µM [activator, partial curve, poor fit]
29 | Cc1cccnc1NCc1ccc(O)c2ncccc12 | inconclusive: 29.1 µM [activator, partial curve, poor fit]
30 | Cc1ccc(/C(=N/Nc2ncnc3ccccc23)C(=O)O)cc1 | inconclusive: 7.31 µM [activator, partial curve, poor fit]
31 | O=C(N/N=C/C(Br)=C\c1ccccc1)c1n[nH]c2c1CCC2 | inactive
32 | CC(c1ccccc1)n1c(-c2ccc(C(C)(C)C)cc2)n[nH]c1=S (centres undefined) | inactive
33 | Oc1c(CN2CCOCC2)cc(COCc2ccccc2)c2cccnc12 | inconclusive: 29.1 µM [activator, single point]
34 | Cc1cc(C)c2ccc(N)nc2c1O | inconclusive: 29.1 µM [activator, single point]
35 | CC(NCCc1ccc(O)cc1)C(O)c1ccc(O)cc1 (centres undefined) | inconclusive: 18.4 µM [activator, partial curve]
36 | C[C@H]1CN([C@@H](C)CO)C(=O)Cc2cc(NC(=O)CCC(F)(F)F)ccc2O[C@H]1CN(C)Cc1ccc(-c2ccccc2)cc1 | inconclusive: 6.51 µM [activator, partial curve, poor fit]
37 | CCOC(=O)c1c(C)nc2c(c1-c1ccc(OC)cc1)C(=O)CC(C)(C)C2 | inconclusive: 18.4 µM [activator, single point]
38 | O=C(Nc1cnccn1)c1ccc(Cl)cc1 | inactive
39 | CCCn1c(-c2ccc(F)cc2)n[nH]c1=S | inactive
40 | O=C(CSc1ncn[nH]1)N1N=C2/C(=C/c3ccccc3)CCCC2C1c1ccccc1 (centres undefined) | inconclusive: 29.1 µM [activator, partial curve, poor fit]
41 | CCOc1ccc(C(C)=O)cc1COC(=O)CN1C(=O)NC2(CCCC2)C1=O | inconclusive: 25.9 µM [activator, single point]
42 | CN(Cc1ccccc1)C(=O)CN1C(=O)c2ccccc2C1=O | inactive
43 | CCOc1ccccc1C1C2CCCCC2(O)CCN1C(=O)c1cccs1 (centres undefined) | inactive
44 | COc1ccc(OC)c(NC(=O)Cn2c(CCC(=O)O)ccc2-c2ccccc2)c1 | inactive
45 | COc1ccc(N2C(=O)C(CC(=O)Nc3ccc(Cl)cc3)N(NC(=O)c3cccc(F)c3)C2=S)cc1 (centres undefined) | inconclusive: 11.6 µM [activator, partial curve]
46 | CCOC(=O)c1c(CSc2ccccc2)n(C)c2cc(Br)c(OCC(O)CNC(CO)(CO)CO)cc12 (centres undefined) | inconclusive: 18.4 µM [activator, single point]

Row | Compound | Potency
47 | COc1cc(/C=C/C(=O)/C=C(O)/C=C/c2ccc(O)c(OC)c2)ccc1O | inconclusive: 6.51 µM [activator, single point]
48 | CC1=C(C)/C(=N\OS(=O)(=O)c2ccccc2)C=CC1=O | inconclusive: 6.51 µM [activator, partial curve, poor fit]
49 | Cc1ccc(-n2c(SCC(=O)NCc3ccco3)nc3c(sc4ccccc43)c2=O)cc1 | active: 13 µM
50 | C/C=C/C=N/NC(=O)CN(c1ccc(Br)cc1)S(=O)(=O)c1ccccc1 | inactive
51 | COc1cc2c(cc1OC)C(C)N(C(=O)Cn1ncc3c1-c1cc(C)ccc1OC3)CC2 (centres undefined) | inconclusive: 29.1 µM [activator, single point]
52 | O=C(N/N=C/c1cccs1)c1cncc(Br)c1 | inactive
53 | COc1ccccc1NC(=O)CSCC(=O)N1c2ccccc2CCc2ccccc21 | inconclusive: 29.1 µM [activator, single point]
54 | COC(=O)c1cc(Br)c(=O)n(CCc2ccc(O)cc2)c1 | inactive
55 | COc1cccc(C(=O)C2CCCN(Cc3cccc(-n4nc(C)cc4C)c3)C2)c1 (centres undefined) | inconclusive: 9.2 µM [activator, partial curve, poor fit]
56 | CCNC(=S)N/N=C/c1cccs1 | inactive
57 | CCCCS/C(N)=N/N=C/c1cc(C)ccc1O | inconclusive: 23.1 µM [activator, single point]
58 | Cc1nc2ccc(NC(=O)CS(=O)(=O)c3ccccc3)cc2s1 | inactive
59 | CC(C)(NC(=O)NC(CO)c1ccccc1)c1cccc(C(C)(C)NC(=O)NC(CO)c2ccccc2)c1 (centres undefined) | inconclusive: 2.59 µM [activator, full curve]
60 | CC1=C(C(=O)Nc2cccc(C(=O)NC3CCCC(C)C3C)c2)SCCO1 (centres undefined) | inconclusive: 29.1 µM [activator, single point]
61 | O=C(CNC(=O)C(c1ccccc1)c1ccccc1)N/N=C\c1cccc(O)c1 | inconclusive: 14.6 µM [activator, single point]
62 | COc1cc(C(=O)Oc2c(CN3CCOCC3)cc(Cl)c3cccnc23)cc(OC)c1OC | inconclusive: 32.6 µM [activator, partial curve, poor fit]
63 | CCOC(=O)[C@H]1[C@H]2COc3cc(OC)ccc3[C@@H]2N2C(=O)c3cc(OC)ccc3NC(=O)[C@@]12C | inconclusive: 6.51 µM [activator, full curve, poor fit]
64 | CCCNC(=O)CN(c1ccccc1)S(=O)(=O)c1ccc(OC)c(OC)c1 | inactive
65 | Cc1cc(/C=N/NC(N)=S)c(C)n1-c1ccc(Br)cc1 | inactive
66 | CCCCCC1CC(/C(C)=N/NC(N)=O)OC1=O (centres undefined) | inconclusive: 16.4 µM [activator, partial curve]
67 | CCC(Sc1nc2ccsc2c(=O)n1-c1ccc(Cl)c(C)c1)C(=O)NCc1ccco1 (centres undefined) | inactive
68 | CC(CCc1ccccc1)NCC(O)c1cccc([N+](=O)[O-])c1 (centres undefined) | inconclusive: 8.2 µM [activator, partial curve, poor fit]
69 | O=C(N/N=C/c1ccc(-c2ccccc2[N+](=O)[O-])o1)[C@H]1C[C@@H]1c1ccccc1 | inactive
